Some of the results follow.

This note sets out measurements from a collection of fitness landscapes (doi:10.1126/science.1257360).

To fix the notation:
B1: PhoQ; a variant is named by its letters at X, in order, P23837 (parent)
chain: MKKLLRLFFPLSLRVRFLLATAAVVLVLSLAYGMVALIGYSVSFDKTTFRLLRGESNLFYTLAKWENNKLHVELPENIDKQSPTMTLIYDENGQLLWAQRDVPWLMKMIQPDWLKSNGFHEIEADVNDTSLLLSGDHSIQQQLQEVREDDDDAEMTHSVAVNVYPATSRMPKLTIVVVDTIPVELKSSYMVWSWFIYVLSANLLLVIPLLWVAAWWSLRPIEALAKEVRELEEHNRELLNPATTRELTSLVRNLNRLLKSERERYDKYRTTLTDLTHSLKTPLXXLQXXLRSLRSEKMSVSDAEPVMLEQISRISQQIGYYLHRASMRGGTLLSRELHPVAPLLDNLTSALNKVYQRKGVNISLDISPEISFVGEQNDFVEVMGNVLDNACKYCLEFVEISARQTDEHLYIVVEDDGPGIPLSKREVIFDRGQRVDTLRPGQGVGLAVAREITEQYEGKIVAGESMLGGARMEVIFGRQHSAPKDE

This experiment covers variants of B1. As to the kind of experiment: enrichment ratio after two sorts for PhoP signalling (ratio (wild type AVST 3.29)); higher = more functional. As to conditions: with PhoP (E. coli).
For IYDT, the enrichment ratio was not above 0.25.
Turning to GHEC, the enrichment ratio is not above 0.25.
On to ATFF, for which the enrichment ratio was not above 0.25.
For the variant DFSG, the enrichment ratio is not above 0.25.
With LLCR the figure was not above 0.25; with KQIF, not above 0.25.
On to FFQP, for which the enrichment ratio was not above 0.25.
Turning to YSQQ, the enrichment ratio was not above 0.25.
Take PNTL: the enrichment ratio is not above 0.25.
For FHQY, the enrichment ratio is not above 0.25.
With SHQS the figure was not above 0.25; with MEMP, not above 0.25; with QTNQ, not above 0.25.
For MREY, the enrichment ratio is not above 0.25.
FHFF: the enrichment ratio was not above 0.25.
With PCGR the figure was not above 0.25.
As to TELQ, the enrichment ratio amounted to 10.
On to TWIP, for which the enrichment ratio is not above 0.25.
With TSDD the figure was not above 0.25; with KITY, not above 0.25.
With RRPG, the enrichment ratio was not above 0.25.
TVWM: the enrichment ratio is not above 0.25.
Regarding PMNK, the enrichment ratio was not above 0.25.
With SDEF the figure was not above 0.25.
With KYRM the figure was not above 0.25.
On to VGNP, for which the enrichment ratio was not above 0.25.
As for KYVA, the enrichment ratio is not above 0.25.
In the case of KYAV, the enrichment ratio was not above 0.25.
MCGA: the enrichment ratio was 5.94.
Regarding FEMI, the enrichment ratio came out at 13.
Turning to HHHI, the enrichment ratio was not above 0.25.
Under IRCA stands not above 0.25; under EHTL, not above 0.25.
With SESG the figure was 28.9.
With AVCA the figure was 6.97; with LITV, not above 0.25.
Take WAFP: the enrichment ratio is not above 0.25.
With AGDA, the enrichment ratio was not above 0.25.
Take PWPA: the enrichment ratio was not above 0.25.
With FMER, the enrichment ratio is not above 0.25.
On to WVWS, for which the enrichment ratio is not above 0.25.
Take FCMQ: the enrichment ratio turned out to be 1.02.
Take KFVP: the enrichment ratio was not above 0.25.
With LCTH the figure was not above 0.25; with QICS, not above 0.25; with GMTC, not above 0.25.
MDMN: the enrichment ratio was not above 0.25.
Under SEEP stands not above 0.25.
As for KYKV, the enrichment ratio was not above 0.25.
On to AVGP, for which the enrichment ratio is not above 0.25.
As to QNVD, the enrichment ratio was not above 0.25.
As for YKCV, the enrichment ratio was not above 0.25.
Take EPAY: the enrichment ratio was not above 0.25.
As for FTCM, the enrichment ratio was 7.68.
In the case of RAHD, the enrichment ratio was not above 0.25.
On to NRWD, for which the enrichment ratio is not above 0.25.
Turning to APPL, the enrichment ratio was not above 0.25.
With ARLI, the enrichment ratio stood at 2.97.
With EYYN the figure was not above 0.25; with FHMC, not above 0.25; with CSPS, not above 0.25.
With LWYN the figure was not above 0.25.
On to YMVY, for which the enrichment ratio was not above 0.25.
With VLKW, the enrichment ratio was not above 0.25.
LQWW: the enrichment ratio was not above 0.25.
As to DIPN, the enrichment ratio was not above 0.25.
As to FVKW, the enrichment ratio is not above 0.25.
Consider WEPK, for which the enrichment ratio is not above 0.25.
Under RYLP stands not above 0.25; under INTM, not above 0.25.
As for LYNM, the enrichment ratio is not above 0.25.
Take IWVT: the enrichment ratio is not above 0.25.
With EKLY the figure was not above 0.25; with PSCM, not above 0.25.
RMHI: the enrichment ratio was not above 0.25.
For the variant YEIN, the enrichment ratio is not above 0.25.
Under GGEI stands not above 0.25; under AIWM, not above 0.25.
As to QKFQ, the enrichment ratio stood at 4.36.
For PKKF, the enrichment ratio is not above 0.25.
For the variant WSAN, the enrichment ratio was not above 0.25.
As for DMKF, the enrichment ratio is not above 0.25.
With FSSI the figure was 0.692; with TECN, 60.8; with TARW, not above 0.25.
For FYKY, the enrichment ratio was not above 0.25.
Under LITW stands not above 0.25.
On to KDNQ, for which the enrichment ratio is not above 0.25.
Consider YYMD, for which the enrichment ratio was not above 0.25.
For AEQC, the enrichment ratio was 16.
With FYEL, the enrichment ratio was not above 0.25.
On to QCIT, for which the enrichment ratio was not above 0.25.
Under VKYV stands not above 0.25; under PHCH, not above 0.25; under GECM, 15.3.
Regarding AGPN, the enrichment ratio was not above 0.25.
For FWIH, the enrichment ratio was not above 0.25.
For YSAY, the enrichment ratio was not above 0.25.
Under VDEE stands not above 0.25; under QVTG, not above 0.25; under SIQM, 1.35.
As for MYFH, the enrichment ratio was not above 0.25.
Turning to PMVF, the enrichment ratio was not above 0.25.
With RRLC, the enrichment ratio was not above 0.25.
With ITHL the figure was not above 0.25; with PQSF, not above 0.25; with DLAK, not above 0.25.
With GKHH the figure was not above 0.25; with ANGN, 8.08.
In the case of HIPH, the enrichment ratio was not above 0.25.
Under LDGH stands not above 0.25.
Regarding QEGE, the enrichment ratio is not above 0.25.
On to KTVA, for which the enrichment ratio is not above 0.25.
For MQTC, the enrichment ratio was not above 0.25.
In the case of SLSH, the enrichment ratio came to 8.37.
With PTWW, the enrichment ratio was not above 0.25.
On to KQDD, for which the enrichment ratio was not above 0.25.
Regarding EYPI, the enrichment ratio is not above 0.25.
Consider FIDA, for which the enrichment ratio was not above 0.25.
On to WAMS, for which the enrichment ratio is not above 0.25.
Consider VEPE, for which the enrichment ratio was not above 0.25.
In the case of MGLF, the enrichment ratio stood at 2.83.
Under IYGY stands not above 0.25; under MLDY, not above 0.25.
As for YCVS, the enrichment ratio was not above 0.25.
As for MYTI, the enrichment ratio is not above 0.25.
Consider QAIW, for which the enrichment ratio was not above 0.25.
Take VFVR: the enrichment ratio is not above 0.25.
On to TGAL, for which the enrichment ratio stood at 15.9.
As for GRLV, the enrichment ratio is 0.785.
Regarding RRTH, the enrichment ratio was not above 0.25.
For GGQI, the enrichment ratio is not above 0.25.
As for EYFI, the enrichment ratio was not above 0.25.
Turning to RAMI, the enrichment ratio is not above 0.25.
As for FRPK, the enrichment ratio was not above 0.25.
Turning to FSLS, the enrichment ratio was 9.54.
Take NHLL: the enrichment ratio is not above 0.25.
Under FYRD stands not above 0.25; under VASG, not above 0.25; under PTSF, not above 0.25.
Turning to WCGG, the enrichment ratio is not above 0.25.
For the variant GELM, the enrichment ratio is 15.9.
For the variant DFNP, the enrichment ratio was not above 0.25.
On to NECQ, for which the enrichment ratio was not above 0.25.
Consider HEWA, for which the enrichment ratio was not above 0.25.
On to GLKR, for which the enrichment ratio is not above 0.25.
As to HSNC, the enrichment ratio is not above 0.25.
In the case of ADNQ, the enrichment ratio was not above 0.25.
As to SWLF, the enrichment ratio was not above 0.25.
For the variant QRGS, the enrichment ratio was not above 0.25.
For the variant KILV, the enrichment ratio is not above 0.25.
Consider MWVF, for which the enrichment ratio is not above 0.25.
On to FFKA, for which the enrichment ratio was 0.521.
